# PubChem BioAssay AID651820 (National Center for Advancing Translational Sciences (NCATS), 2012)
# Hit rate of the full screen: of about 340,000 compounds, about 12,000 (3.5%) were called active. The shares of active, inactive and inconclusive entries below differ from those in the screen. The call rests on the fitted dose curve; in most records, active means well fitted inhibition curve with a large enough effect; inconclusive means small, poorly fitted or top-dose-only effect, or another doubt; inactive means no such curve, though single readings can be large or run the other way. Potencies of inconclusive entries are left out as doubtful fits.
# Assay: qHTS Assay for Inhibitors of Hepatitis C Virus (HCV)
# Conditions: Huh7.5.1 HCVcc-Cre (HCVcc is cell-culture hepatitis C virus) infection, luciferase reporter, 44 h; series mostly up to 41.8 µM
# Summary of the method: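 Cells (1,000/well) were plated 4 h before compound, then infected with HCVcc-Cre virus (~0.5 moi). After 44 h further culture, infection was read as luciferase luminescence following a 15 min substrate incubation at room temperature.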
# Potency means the concentration at half of the fitted maximal effect; tags describe the fitted curve by direction and shape.
row,Structure (SMILES),Potency
1,CC(=O)Nc1cccc(Oc2cc(C#N)c(C#N)cc2N2CCCCCC2)c1,"inconclusive [inhibitor, partial curve]"
2,CCOc1cc2[nH]c(=S)n(Cc3ccc(C(=O)N4CCN(C)CC4)cc3)c(=O)c2cc1OCC,active: 12.6 µM
3,Cc1cc(C)c2c(=O)n(CC(=O)Nc3ccc(Cl)cc3)sc2n1,inactive
4,Cc1ccc(NC(=S)NC2CCSc3ccccc32)cc1C (stereo not drawn),"inconclusive [inhibitor, single point]"
5,CC1Cc2ccccc2N1C(=O)c1cc2c(=O)n3ccccc3nc2n1C (stereo not drawn),inactive
6,CCOC(=O)c1ccc(NC(=O)C2CCN(C(=O)c3ccc(OC)c(OC)c3)CC2)cc1,active: 10 µM
7,CCNC(=S)N(CCc1c(C)[nH]c2ccc(C)cc12)Cc1cccnc1,"inconclusive [inhibitor, partial curve]"
8,CCc1cccc(OCC(O)Cn2c(N3CCCCC3)nc3c2c(=O)[nH]c(=O)n3C)c1 (stereo not drawn),"inconclusive [inhibitor, partial curve]"
9,CCOc1ccc(S(=O)(=O)NCCC(=O)N(C)CC(=O)Nc2ccc(N3CCOCC3)cc2)cc1,inactive
10,CCOc1cc(CNc2ccc(N(C)C)cc2)cc(Br)c1OCC(=O)NC(C)(C)C,active: 11.2 µM
11,CC(=O)c1c(C)n(CCO)c2ccc(O)cc12,inactive
12,CCOP(=O)(OCC)c1nc(-c2ccc(F)cc2)oc1NCc1ccccc1,inactive
13,CCCc1cc2c(cc1NC(=O)c1ccc(Br)cc1)OCO2,inactive
14,O=C(Nc1cc(Cl)cc(Cl)c1)Nc1cnccn1,inactive
15,COc1cccc(/C=N/NC(=O)CNC(=O)c2cccs2)c1O,"inconclusive [inhibitor, single point]"
16,CS(=O)(=O)NCCSCc1ccccc1,"inconclusive [inhibitor, single point]"
17,CCN(CC)CC#CC(O)(c1ccccc1)c1ccccc1,inactive
18,Cc1cccc(C)c1NC(=O)Cn1nnc(-c2ccc(N3CCOCC3)cc2)n1,"inconclusive [inhibitor, full curve]"
19,CCOC(=O)C1CCN(C(=O)COC(=O)c2oc3ccc(OC)cc3c2C)CC1,"inconclusive [inhibitor, partial curve]"
20,O=C(CN(c1ccc(Br)cc1)S(=O)(=O)c1ccc(Cl)c([N+](=O)[O-])c1)NCC1CCCO1 (stereo not drawn),"inconclusive [inhibitor, single point]"
21,O=C(Cn1c(-c2cscn2)nc2ccccc21)Nc1ccc2ccccc2c1,"inconclusive [inhibitor, single point]"
22,CC(C)c1ccc(N(CC(=O)NCCc2ccccc2)C(=O)c2csnn2)cc1,"inconclusive [inhibitor, single point]"
23,Cc1cc(N2CCN(c3ccccc3Cl)CC2)n2cc(-c3ccccc3)nc2n1,"inconclusive [inhibitor, single point]"
24,CCS(=O)(=O)c1ccc(C(=O)Nc2ccccc2)c(Cl)c1Cl,inactive
25,O=c1[nH]c2ccccc2c2ccccc12,active: 14.1 µM

row,Structure (SMILES),Potency
1,COc1ccc(C)cc1NC(=O)Nc1ccncc1,"inconclusive [inhibitor, single point]"
2,CN(Cc1ccccc1)S(=O)(=O)c1cn(C)cn1,inactive
3,CN(C)CCN(C(=O)/C=C/c1cccs1)c1nc2c(F)cc(F)cc2s1,"inconclusive [inhibitor, partial curve]"
4,O=C(CSc1ccc(S(=O)(=O)N2CCCCC2)cn1)Nc1ccccc1Br,"inconclusive [inhibitor, single point]"
5,CC1(C)Cc2c(C#N)c(SCC(=O)c3ccccc3)nc(N3CCOCC3)c2CS1,"inconclusive [inhibitor, partial curve]"
6,Cc1ccc(CNC(=O)C2(S(=O)(=O)c3ccc(C)cc3)CC2)cc1,inactive
7,O=[N+]([O-])c1cccc(/C([O-])=C(/C(=S)Nc2cccc3ccccc23)[n+]2ccccc2)c1,"inconclusive [inhibitor, single point]"
8,O=C(CCC(=O)N1CCN(c2cccc(Cl)c2)CC1)N1CCN(c2ccccc2)CC1,"inconclusive [inhibitor, partial curve]"
9,COc1ccc(NC(=O)C2CCN(c3ncnc4c3nc3n4CCCCC3)CC2)c(OC)c1,inactive
10,Cc1oc(-c2ccc(Cl)cc2)nc1CN1CCC(C(=O)NCc2ccco2)CC1,"inconclusive [inhibitor, single point]"
11,O=C(NNC(=O)c1ccccc1O)c1ccc(S(=O)(=O)Nc2ccccc2)cc1,"inconclusive [inhibitor, full curve]"
12,CSc1ccc(CN(C)C(=O)c2ccc(S(=O)(=O)Nc3ccccc3)cc2)cc1,"inconclusive [inhibitor, single point]"
13,CCOc1ccc(/C=C(\C(=O)O)c2ccc(S(=O)(=O)N3CCCCC3)s2)cc1OC,inactive
14,COc1ccc(COc2cc(-c3cccc(OC)c3)nc3ccc(NC(=O)c4cccnc4)cc23)cc1,"inconclusive [inhibitor, partial curve, poor fit]"
15,O=C(COC(=O)c1ccc[nH]c1=O)NCCCc1ccccc1,inactive
16,O=C(NCCN1CCOCC1)c1cc2ccccc2oc1=O,active: 3.16 µM
17,N#Cc1c(NC(=O)c2ccncc2)sc2c1CCC2,inactive
18,N#Cc1c(N)[nH]c2ccc(Sc3ccccc3)cc12,"inconclusive [inhibitor, full curve, poor fit]"
19,CCCCNC(=O)C1CCN(Cc2ccc(OCc3ccccc3)c(OC)c2)CC1,"inconclusive [inhibitor, single point]"
20,CCN(Cc1ccccc1)S(=O)(=O)c1cc2[nH]c(=O)c(=O)[nH]c2cc1C,inactive
21,CCNc1nc(-c2ccc(OC(F)F)cc2)c(C)s1,"inconclusive [inhibitor, partial curve]"
22,CCOC(=O)C(=CNc1cc(C)ccc1[N+](=O)[O-])C(=O)OCC,"inconclusive [inhibitor, full curve, poor fit]"
23,CSc1ccccc1C(=O)C1CCCN(C(=O)c2cc(C(C)C)no2)C1 (stereo not drawn),"inconclusive [inhibitor, partial curve]"
24,COc1ccc(NC(=O)c2cccc(Oc3ccc([N+](=O)[O-])cc3Cl)c2)cc1,"inconclusive [inhibitor, single point]"
25,Cn1c(N)c(C(=O)COC(=O)/C=C/c2ccc(F)cc2)c(=O)n(C)c1=O,"inconclusive [inhibitor, single point]"

row,Structure (SMILES),Potency
1,O=C(COc1ccccc1)N1c2ccccc2Sc2ccccc21,"inconclusive [inhibitor, single point]"
2,Cc1ccnc(Nc2nc(-c3ccccc3)cs2)c1,"inconclusive [inhibitor, single point]"
3,O=C1CC(SCc2nc3ccccc3[nH]2)C(=O)N1c1ccc(F)c(Cl)c1 (stereo not drawn),inactive
4,Cc1ccc(S(=O)(=O)c2nc(-c3ccccc3Cl)oc2N(C)C)cc1,active: 20 µM
5,Cc1ccc(S(=O)(=O)N(C)C)cc1NC(=S)N1CCN(Cc2ccc3c(c2)OCO3)CC1,active: 12.6 µM
6,ON=C1c2ccccc2-c2ccc(F)cc21,"inconclusive [inhibitor, full curve]"
7,CCOC(=O)c1cn(CC)c2c(ccc3ccccc32)c1=O,"inconclusive [inhibitor, single point]"
8,COc1ccc(C(=O)Nc2ccc3ccccc3c2)cc1OC,"inconclusive [inhibitor, full curve, poor fit]"
9,Cc1ccccc1OCC(=O)Nc1sc2c(c1C#N)CC(C)(C)NC2(C)C,"inconclusive [inhibitor, partial curve, poor fit]"
10,Clc1ccc(-c2cnc3n2CCC3)cc1,"inconclusive [inhibitor, single point]"
11,CCOC(=O)/C(=N/Nc1ccccc1OC)N1CCCc2ccccc21,"inconclusive [inhibitor, single point]"
12,O=C(COC(=O)CCCOc1ccccc1)NNC(=O)c1ccc([N+](=O)[O-])cc1,inactive
13,Cc1cc(C(=O)OC(C(=O)Nc2ccc(C)c(Cl)c2)c2ccccc2)c(C)o1 (stereo not drawn),"inconclusive [inhibitor, partial curve]"
14,Cc1cc(OCC(=O)N(C)Cc2ccccc2)ccc1Br,"inconclusive [inhibitor, partial curve]"
15,O=C(Nc1nc(-c2cc(Cl)sc2Cl)cs1)c1ccccc1,active: 11.2 µM
16,CCc1cc(=O)oc2cc(C)cc(OCC(=O)NC(Cc3c[nH]c4ccc(O)cc34)C(=O)O)c12 (stereo not drawn),inactive
17,COc1cccc(NC(=O)COC(=O)c2c3c(nc4ccccc24)CCC(C)C3)c1 (stereo not drawn),active: 2 µM
18,Cc1nnc(NC(=O)CSc2nccn2C)s1,inactive
19,C=CCN1C(=O)C2(NNc3ccccc3O2)c2ccccc21 (stereo not drawn),inactive
20,CCOC(=O)c1ccc(N2CCN(C(=O)c3ccccc3)CC2)c(NC(=O)c2ccco2)c1,"inconclusive [inhibitor, partial curve]"
21,CC(=O)N1CCN(c2ccc(Oc3ncnc4sccc34)cc2)CC1,"inconclusive [inhibitor, partial curve]"
22,COC(=O)c1ccccc1NC(=O)c1nc2nc(C)cc(C)n2n1,"inconclusive [inhibitor, single point]"
23,CN(CC(=O)Nc1ccc(Cl)cc1)CC(=O)Nc1cccc2ccccc12,"inconclusive [inhibitor, single point]"
